{"source": "the supplement of paper PMC11417369", "note": "This is one part of the list.", "data": [{"system": "PfSIP2 AP2 domain 1 (GST-tagged)", "test": "gcPBM binding intensity (ln(normalized median fluorescence intensity)); higher = stronger DNA binding", "in_short": "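Using an Agilent 4 × 180k array, primer-extended double-stranded 36-bp intergenic genomic probes and negative controls were exposed for 1 h to GST-fused P. falciparum DNA-binding domains expressed in E. coli. Binding was carried out in 1× PBS with 1% milk, 0.2 mg/ml BSA, 0.5% salmon testes DNA and 0.03% Triton X-100, and protein was detected with Alexa488 anti-GST antibody and a 488 nm scan. Binding intensity is the highest Masliner-normalised natural-log median intensity across replicate spots of either probe orientation.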", "values": [{"sequence": "TAATATGCATAAAATTGTACAAACTTACATATAATA [XGTACX_site2752]", "gcPBM binding intensity (ln)": 7.08}, {"sequence": "TTTTCTTGACCTATTATTCTTCTCATAGTATAATAT [GTGCAC_negctrl_site641]", "gcPBM binding intensity (ln)": 6.98}, {"sequence": "TTCATAGAATTATATATTTTAAAAAAAAAAATAATT [CACACA_negctrl_site175]", "gcPBM binding intensity (ln)": 6.65}, {"sequence": "TTTTTTATAGGACATGCATGTTGTAGAGCTGTATAT [TGCATGCA_site704]", "gcPBM binding intensity (ln)": 7.41}, {"sequence": "TGTCAAAATATGTATACACACAATTTTTTTTTTTTT [CACACA_site2465]", "gcPBM binding intensity (ln)": 6.83}, {"sequence": "ATTCATTTACCAATGGTGCAATATATTTTTATAATG", "gcPBM binding intensity (ln)": 10.3}, {"sequence": "TAATAAATAAAATAGAGTACAGGGATTTCATTAAAT [XGTACX_site8979]", "gcPBM binding intensity (ln)": 6.9}, {"sequence": "TATATTACTTATATTTGTACACAGAAATATAAATCA [XGTACX_site13]", "gcPBM binding intensity (ln)": 6.82}, {"sequence": "TTTTTCATAAGAAGCACACAAAAAATGATAGAGAAT [CACACA_site1417]", "gcPBM binding intensity (ln)": 7.52}, {"sequence": "AAAAAAAAAATATATTGTACAAATAGATATGTCAAT [XGTACX_site122]", "gcPBM binding intensity (ln)": 6.84}, {"sequence": "AAAGAAAGTACCTTCACACATATAAGAATATAATAT [CACACA_site5214]", "gcPBM binding intensity (ln)": 6.93}, {"sequence": "TGAAATACGAATTATTGTACTTATGTGTAAGATGGC [XGTACX_site4472]", "gcPBM binding intensity (ln)": 7.41}, {"sequence": "AATATATTTTAATATACACACATATATGCTCTTTAA [CACACA_site9371]", "gcPBM binding intensity (ln)": 6.9}, {"sequence": "TTATTTTTTTTGTGTTGTACAATTTATTACTACTAA [XGTACX_site346]", "gcPBM binding intensity (ln)": 7.19}, {"sequence": "AAACAAATATGTAGCACACATTCACATAATATATTT [CACACA_site2335]", "gcPBM binding intensity (ln)": 7.21}, {"sequence": "GTATTTATAATACGGCGTACATAAAAAAAAAAAAAA [XGTACX_site3705]", "gcPBM binding intensity (ln)": 7.41}, {"sequence": "TTATTTATGTGTAGGGCATGCAATCGTGTTTTTAAA [TGCATGCA_site735]", "gcPBM binding intensity (ln)": 7.14}, {"sequence": "TTATAATATATATCTGCATGTTGCTTTGGGGCTTTA [TGCATGCA_site712]", "gcPBM binding intensity (ln)": 6.95}, {"sequence": "TATATTAAACAATATACACACATTAATGTAGACATA [CACACA_site8889]", "gcPBM binding intensity (ln)": 6.71}, {"sequence": "GAAAATTCTTAAGGCACACACATATAAGATATATAC [CACACA_site6410]", "gcPBM binding intensity (ln)": 6.83}, {"sequence": "TTTCAGACAAAAAAAAAAAAAAAAAAGAGGAGAATA [CACACA_negctrl_site254]", "gcPBM binding intensity (ln)": 6.64}, {"sequence": "TTTAAGCAAAGACACACACACATATTTATATTTATA [CACACA_site6295]", "gcPBM binding intensity (ln)": 6.9}, {"sequence": "AAACATTTATACAAAGCACACAATTTTTAACTTTTA [CACACA_site2627]", "gcPBM binding intensity (ln)": 6.82}, {"sequence": "AACCTTTTAAGAGTTGCACACGTACAAAAAAAAAAA [CACACA_site9159]", "gcPBM binding intensity (ln)": 7.5}, {"sequence": "AATAAAAAAAAAAAAAAAAAAAAAAACCTGAGGAGT [CACACA_negctrl_site1140]", "gcPBM binding intensity (ln)": 6.84}, {"sequence": "TTATTCATAAAAACAAAAAACAAAAATGAAATAGGA [CACACA_negctrl_site1123]", "gcPBM binding intensity (ln)": 7.03}, {"sequence": "TATGATATAATATACACACATACATATATATATATA [CACACA_site510]", "gcPBM binding intensity (ln)": 9}, {"sequence": "TATTATGTCTAAAATAACATATTAATATATTATTTC [CACACA_negctrl_site285]", "gcPBM binding intensity (ln)": 6.89}, {"sequence": "TTAATATTTTATTTCACACACATAAATGCCCCAAAC [CACACA_site1887]", "gcPBM binding intensity (ln)": 7.72}, {"sequence": "AGAGTTCTCCTATGCACACAAAAAACTTTCATTTAT [CACACA_site4193]", "gcPBM binding intensity (ln)": 8.78}, {"sequence": "CATCATATAAATTCAAGTACAAGAAAAAGTAATATA [XGTACX_site2383]", "gcPBM binding intensity (ln)": 6.96}, {"sequence": "AAATAATTTTTATTTGTACACACATACATATATATT [CACACA_site8240]", "gcPBM binding intensity (ln)": 6.96}, {"sequence": "TAAATAAAGATATATACACACATATTTATATTTATA [CACACA_site6431]", "gcPBM binding intensity (ln)": 6.75}, {"sequence": "ACAAAATTGAAATTCACACAAAAACTATACTTTTTA [CACACA_site4638]", "gcPBM binding intensity (ln)": 6.75}, {"sequence": "ATATCTACTTTTTTATGTACGAAAAAAATACGGATT [XGTACX_site8937]", "gcPBM binding intensity (ln)": 7.18}, {"sequence": "TATATATATATTAATAGTACATATTATGTAAGCCTA [XGTACX_site2826]", "gcPBM binding intensity (ln)": 8.57}, {"sequence": "TTTTTTTTTTTTTTTGTGCACAATATAATTTTTAAT [GTGCAC_site9747]", "gcPBM binding intensity (ln)": 8.64}, {"sequence": "AAAAAATACATACATACACACATATATATATATATA [CACACA_site913]", "gcPBM binding intensity (ln)": 9.82}, {"sequence": "TCCTCTTATAATTCGTGTCCACATATATCATACAAT [XGTACX_site1523]", "gcPBM binding intensity (ln)": 7.53}, {"sequence": "ATAAAACAAATGAGTACACACACATAAAAATTGAAA [CACACA_site7949]", "gcPBM binding intensity (ln)": 7.13}, {"sequence": "TACGGATATATATATTGTACATATATATAATATATA [XGTACX_site3156]", "gcPBM binding intensity (ln)": 7.25}, {"sequence": "CATAAAAATGAACATACACACATATATATATATATA [CACACA_site2498]", "gcPBM binding intensity (ln)": 9.39}, {"sequence": "TTGCTTTCTTTTTTTTGTACTCATATCTACTATCAT [XGTACX_site7711]", "gcPBM binding intensity (ln)": 7.07}, {"sequence": "CGAGCAAGACGGGGTGCACACAAACTAATATGCCGA [CACACA_site7936]", "gcPBM binding intensity (ln)": 12.1}]}]}
